Experimental data: the supplement of paper PMC11417369
± gives the standard deviation of the averaged measurements. This is one part of the list.

tested on: PfAP2-I AP2 domain 3 (GST-tagged); assay: gcPBM binding intensity (ln(normalized median fluorescence intensity)); higher = stronger DNA binding
Method in brief: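 Probes on an Agilent 4 × 180k array were primer-extended, double-stranded and 36 bp long, taken from intergenic genomic regions, with negative controls added. GST-tagged P. falciparum DNA-binding domains from E. coli, about 25 μg on average, were applied to the array for 1 h in 1× PBS containing 1% milk, 0.2 mg/ml BSA, 0.5% salmon testes DNA and 0.03% Triton X-100. Binding intensity, obtained after Alexa488 anti-GST antibody detection and a 488 nm scan, is the highest Masliner-normalised natural-log median intensity across replicate spots of either probe orientation.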

Row | Sequence | gcPBM binding intensity (ln)
1 | TTTTTTATTTTTTTATTGTTTTATTGTTTCATTGTT [XGTACX_negctrl_site128] | 7.58 ± 0.63
2 | AATTAGATACTAACAAGTACATATATATATATATAT [XGTACX_site2252] | 9.715 ± 0.092
3 | TTGTAATTATTAAACACACACAAAATATCTAGAATA [CACACA_site7231] | 7.8 ± 0.47
4 | ATTTAGATTAACACTTGTACATAATACATACAAATA [XGTACX_site4147] | 7.81 ± 0.45
5 | ATTTTTTTTTGTGTATATAAATAAATAAATATATAT [GTGCAC_negctrl_site603] | 7.71 ± 0.43
6 | TTTCCCTAATGAAAGTGTACCTGTGAGAAAAAAAAG [XGTACX_site194] | 7.99 ± 0.6
7 | AAAAGAAAAGAGAGGAGTACAAAATATAATTATCTA [XGTACX_site5172] | 7.96 ± 0.27
8 | CATATTGGTATGCTCATGCACTTTTATTTTGTTATT [GTGCAC_site9553] | 8.52 ± 0.53
9 | TGTATATATTAATGTACACACATGCGTATGTTCGTT [CACACA_site3583] | 7.74 ± 0.47
10 | TTATTTATTTATATAGTGCAATAAACACATAAATAG | 10.8 ± 0.47
11 | AAAAAAAAAAAAAGAACACACACAGTGCACATTCGG [CACACA_site8163] | 10.7 ± 0.45
12 | TGCTCCTATTATATAGTGCATTTATTTTAATAAACG | 10.7 ± 0.56
13 | TAATTTATAAAAAATTGTACATTAAACATATATATA [XGTACX_site5164] | 7.71 ± 0.49
14 | AACCTTACACAAGGGGTGCAATATTATTTCGATAAA [GTGCAC_site9600] | 11.5 ± 0.66
15 | TCTTTTCGTTCATGCTGTACTTAATTGCTCTAATTT [XGTACX_site4816] | 8.09 ± 0.82
16 | AAAAAAAAAAAAAGCACACACACATATGTGTATATA [CACACA_site8225] | 8.33 ± 0.57
17 | CCCTGCCTCTCTTTGGTGCGTTGTAACCCTCGAGGA | 10.3 ± 0.33
18 | TAAATTGTATATGAGACTATACTATAAAAGTATGAA [XGTACX_negctrl_site22] | 7.46 ± 0.4
19 | TGTCTGTGCGGGTGTACACATTTCATATTACCCAAT [CACACA_site5593] | 8.52 ± 0.28
20 | TAATTTTTCCTTTTTGCACACATTAACGTCGACGAA [CACACA_site4025] | 10 ± 0.11
21 | CAATTTATTTTTATTACACACTATCCAAATAATTTC [CACACA_site2956] | 7.95 ± 0.4
22 | AACATACGACAATACGCACACATATATGTACATATT [CACACA_site1917] | 8.35 ± 0.61
23 | TATATAATAATTTAGAGTACTGATAAAATATTCCAT [XGTACX_site6200] | 7.55 ± 0.47

Row | Sequence | gcPBM binding intensity (ln)
24 | TTAAACAATTTAGACATACACACAAAAATAATATTA [CACACA_site385] | 7.67 ± 0.59
25 | AGCATACATATTTTTTGTACATATATATATATATAT [XGTACX_site8536] | 9.38 ± 0.42
26 | CCATAAAATCATAAGCGTACTTAATATATTTTACTT [XGTACX_site559] | 7.62 ± 0.64
27 | AAATTCCACGAACACACACACATATAAATAAATAAA [CACACA_site6697] | 8.01 ± 0.23
28 | TAGTAAAAACCAAAATGTACATGTGCCATTTTTTTA [XGTACX_site2630] | 7.79 ± 0.48
29 | TATATTATACTAAGAAGTACAATATTTTTATTGTAA [XGTACX_site2810] | 7.475 ± 0.007
30 | TATAGTATTCTAAATGCATGTAAATTATGTATATAT [TGCATGCA_site931] | 8.34 ± 0.8
31 | GTTTATCACAGCCACGCACACATAATATCTGTATAT [CACACA_site5929] | 8.18 ± 0.59
32 | GATTATTAATAGTAACGTACATATGTTATAAAATAT [XGTACX_site5277] | 7.94 ± 0.58
33 | CTTATATTGTACAGTACACACCTTTATAATGTTATT [CACACA_site4280] | 8.23 ± 0.47
34 | ATCAAAAAAAAAAAAAGTACACAAAATTTTTTATTA [XGTACX_site7986] | 8.18 ± 0.23
35 | ATAATGAACAAAGTAGTGCACTTTCCTTATCTTTTC | 11.4 ± 0.26
36 | AAGGTTTAAAATTACTGTACAAATATAAATAAATAT [XGTACX_site3756] | 7.71 ± 0.43
37 | TATATGTGTGTTATATGTACTTATATATATATATAT [XGTACX_site5570] | 9.04 ± 0.26
38 | ACTAATATGTATATATATATATATATATATATATAT [CACACA_negctrl_site141] | 9.17 ± 0.49
39 | TACATATTTAAATACTGTACTCAAAAGAATTGTGCA [XGTACX_site2250] | 8.11 ± 0.11
40 | TATATATATATATATATATATATATATATATGTTGT [TGCATGCA_negctrl_site24] | 9.23 ± 0.54
41 | ACTTTAAACAAAAAAAGTACTCTTTAATGAATATAT [XGTACX_site7176] | 7.83 ± 0.34
42 | CAATATTTTATTTAAGCATGCTCTAGGGTGTAAAAG [TGCATGCA_site1001] | 8.26 ± 0.56
43 | CAATTTCTCTTAATTTGTACATATATGTTATACAAA [XGTACX_site3231] | 7.74 ± 0.5
44 | TTATATATTTCTACTCATATTACAATGTGAGAAATA [CACACA_negctrl_site873] | 7.43 ± 0.55
45 | TAGATATATAATTTTTGTACGTAGTCGAATCTCAGA [XGTACX_site765] | 7.63 ± 0.5
46 | CTCAACAAAATATGAGTGCATTGTTATTACATATAT | 10.2 ± 0.27

Row | Sequence | gcPBM binding intensity (ln)
47 | AACATTAAAAGGGATACACACATATAAATAAATAAT [CACACA_site489] | 7.79 ± 0.81
48 | AAATATATATAAAAGTGTACATTTGTTATAATCAGT [XGTACX_site4822] | 8.06 ± 0.55
49 | CCAACTAAAAAGGAATGTACATAGTTATGGTTGGAA [XGTACX_site8762] | 8 ± 0.74
50 | TAGATTTTTTAATGTTGTACAAATATACGATATATA [XGTACX_site3258] | 7.68 ± 0.26
51 | TTGTTTCTCTTTAAAAGTACAAAAATGGTTACATAT [XGTACX_site3109] | 8.02 ± 0.48
52 | ACATCAAGCAGACACACACACACACGCACACGCACA [CACACA_site6309] | 8.37 ± 0.49
53 | ACTATTCATGCATATACACACACATATATATATATT [CACACA_site9309] | 8.8 ± 0.53
54 | AACAATAAAAATAATTGTACAAGTTTAAAAAAAATT [XGTACX_site1987] | 7.92 ± 0.49
55 | TCTTTAAATTTCTCAACACACAGTTATAAAAAATAA [CACACA_site2856] | 7.78 ± 0.3
56 | TATATCTTATTTAACACACACAAAGAAAATAGAAAA [CACACA_site3732] | 7.95 ± 0.62
57 | CATTTAAGACAAATTACACACGTATGCCAAATATAT [CACACA_site431] | 8 ± 0.63
58 | ATATTTTTTTTTGTTAGTACTCATATTTGTAGTTTT [XGTACX_site7280] | 8.01 ± 0.67
59 | AATATATATAATTATAGTACAGAAAATTAAAAAAGA [XGTACX_site2943] | 8.07 ± 0.61
60 | TATATATATTAGTGTGCACACTTTTTATTTTTATCC [CACACA_site8506] | 9.33 ± 0.4
61 | ATATATTTATAATAGGTGCATATGTTTTATTTTTCC [GTGCAC_site9849] | 10.1 ± 0.5
62 | TGTTCTATTCTATTATTATTTACAAATTATAAATAA [GTGCAC_negctrl_site232] | 7.89 ± 0.37
63 | AAAGAATTATATAAGGTGCACGAATGTTTCTTTAAT | 10.96 ± 0.035
64 | ATATGTGTGTGTATTTGTACCCAATTTTTATATATA [XGTACX_site4948] | 8.29 ± 0.43
65 | AAAAAAAAAAAAAAAAAAAAAATACATATATATATA [CACACA_negctrl_site290] | 9.48 ± 0.26
66 | AGATATGTTTTTAATTGTACATAAATACACAAATAT [XGTACX_site5981] | 7.87 ± 0.37
67 | TGTAATAAATAGTACACACACACATATATATATATT [CACACA_site1388] | 8.01 ± 0.48
68 | TATAAATATATTTATACACACATTAGTGTATACATG [CACACA_site7397] | 7.85 ± 0.52
69 | AGGTGAAAAATATATAATAATGTAACAAAAAAAAAT [XGTACX_negctrl_site394] | 7.78 ± 0.75

Row | Sequence | gcPBM binding intensity (ln)
70 | TCGTGTTAAATTTTTACACACAAACTTGCAATAATT [CACACA_site3824] | 9.11 ± 0.61
71 | AACTATAACTAAAAAAATCACATAAAATATTTTATT [TGCATGCA_negctrl_site363] | 7.54 ± 0.49
72 | AAAATATAAAATAATGCACACATAAACAAAAAATCA [CACACA_site8382] | 10.8 ± 0.96
73 | TAAAGTTAAAAATTATGTACATATATATTGTATATT [XGTACX_site5528] | 7.52 ± 0.45
74 | GATAAAATAGGACCATATTCTTTAAAACGATAAAAT [XGTACX_negctrl_site405] | 7.76 ± 0.48
75 | ATATATATATATTTATGTACATATACATAATGTATA [XGTACX_site6387] | 8.88 ± 0.18
76 | TAAGAAGTATTTTCCTGTACATATTTTATATGTATG [XGTACX_site4658] | 7.39 ± 0.26
77 | TTATTTTATATATCACGTACATAGTTGTCTTCTTTT [XGTACX_site2906] | 7.8 ± 0.59
78 | ATGAATCCTTAATATGAACACACAAATATATTACAC [CACACA_site7943] | 8.06 ± 0.45
79 | TCCTTATTTATATAATGTACTTTTTTTTTTCATTTT [XGTACX_site4275] | 7.85 ± 0.58
80 | TTTTTTATTTATCCTATATATTACTAAATGAAGAAC [GTGCAC_negctrl_site333] | 7.92 ± 0.38
81 | TTATTTCAAAGTAAATCAGTAAATATTTGTTTTCTT [CACACA_negctrl_site1572] | 7.28 ± 0.46
82 | TACAAGTATAAATAAGCACACATGTGGATATGTACA [CACACA_site4229] | 8.45 ± 0.52
83 | ATAAATAAATACATATGTACATATATATATATATAT [XGTACX_site7145] | 9.22 ± 0.44
84 | ATATATATATTAAGGGGTACGTAAAAAATTGGGAAG [XGTACX_site7322] | 8.91 ± 0.11
85 | TCAGTTAATGTATATGTACACACGGGGTGTATATAT [CACACA_site9103] | 8.12 ± 0.46
86 | AAATTATATCCCCTTTGTACTTACAGATCTTTATAC [XGTACX_site8163] | 7.97 ± 0.67
87 | TAAAAAAAAATAAATACATGCATATAATACATTATA [TGCATGCA_site518] | 7.39 ± 0.42
88 | TGAACATGTTAAAATAAACACACAGCTAAGGTTTTT [CACACA_site7934] | 7.34 ± 0.72
89 | TATCATATAAATACATGTACATATTTGGAAAATAAT [XGTACX_site5373] | 7.79 ± 0.56
